Measurements as given in the supplement of paper PMC4166925.
± gives the standard deviation of the averaged measurements. Over roughly 33,000 sequences, “E-score (dimensionless, -0.5 to 0.5)” has its median near -0.049; the highest 2% begin near 0.37. This is one part of the list.

Each sequence was assayed on T1, PmTbr T-box DNA-binding domain (GST fusion) (assay: PBM E-score of 8-mer (E-score (dimensionless, -0.5 to 0.5)); Tbr is Tbrain of the sea star Patiria miniata (Pm) or the sea urchin Strongylocentrotus purpuratus (Sp); higher = stronger binding preference; most listed sequences are background and not binding sites). Conditions: the construct has about 5 more residues each side.
T1 sequence: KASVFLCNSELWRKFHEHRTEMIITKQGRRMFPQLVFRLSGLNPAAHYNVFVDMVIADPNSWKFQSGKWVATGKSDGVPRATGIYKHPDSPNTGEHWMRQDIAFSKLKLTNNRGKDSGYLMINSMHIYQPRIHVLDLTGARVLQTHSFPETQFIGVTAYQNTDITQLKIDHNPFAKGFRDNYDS
Summary of the method: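 Using the Universal PBM Analysis Suite, every ungapped 8-mer received an enrichment E-score averaged over duplicate arrays. Probe intensities came from double-stranded Universal Agilent oligonucleotide arrays incubated with 200 nM GST-fused Tbr T-box DNA-binding domain in PBS (pH 7.5). That protein was expressed in BL21 E. coli at 20 °C and purified by glutathione affinity chromatography.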

| Sequence | PBM E-score of 8-mer |
| --- | --- |
| CCTACGTC | -0.0133 ± 0.061 |
| CATTCCCG | -0.0279 ± 0.086 |
| GAATACAA | -0.083 ± 0.062 |
| AGCGAAAT | 0.134 ± 0.06 |
| GCGAAAGA | 0.248 ± 0.0091 |
| CGTTGCGC | 0.102 ± 0.037 |
| GACAAAAA | 0.158 ± 0.09 |
| CGAAGGTC | 0.08 ± 0.055 |
| ATCGGGGG | -0.128 ± 0.09 |
| ATTGGCTC | -0.136 ± 0.053 |
| ACGCCCTC | 0.2012 ± 0.00017 |
| GACGACCA | -0.135 ± 0.022 |
| AATCAGCA | 0.0635 ± 0.0042 |
| ACAACATA | -0.0529 ± 0.047 |
| AGGAAACA | -0.161 ± 0.027 |
| AATTCGCG | 0.303 ± 0.035 |
| AGGATAAA | -0.154 ± 0.082 |
| ACCAACGC | 0.175 ± 0.013 |
| CTGATGGC | -0.205 ± 0.011 |
| ATTGTTAG | 0.0514 ± 0.074 |
| GTATTCTA | -0.236 ± 0.044 |
| TAGCTCGA | 0.0596 ± 0.047 |
| AATTTGTA | -0.0152 ± 0.047 |
| CCTTCTGC | 0.187 ± 0.032 |
| ACCTGCGA | 0.344 ± 0.035 |

| Sequence | PBM E-score of 8-mer |
| --- | --- |
| ATAGTTCC | -0.201 ± 0.075 |
| AACTAACT | 0.0164 ± 0.028 |
| GCCGGTAA | -0.0951 ± 0.077 |
| CCGGCCTC | -0.272 ± 0.022 |
| CATCTCGA | -0.12 ± 0.017 |
| TCAAAAGA | -0.163 ± 0.04 |
| GCAGAACC | -0.0717 ± 0.0065 |
| CAAATTCG | 0.0471 ± 0.029 |
| CCATCACG | 0.033 ± 0.018 |
| AGACTTGG | -0.0921 ± 0.053 |
| ACACGACC | 0.0984 ± 0.062 |
| GTAGTGCA | -0.21 ± 0.062 |
| GAACTGTA | -0.0173 ± 0.082 |
| CTGTCAAC | 0.338 ± 0.011 |
| CTGCTCAC | 0.0418 ± 0.0086 |
| CAAATAGG | -0.0632 ± 0.017 |
| GGCATCAA | -0.195 ± 0.1 |
| CAGTTTAG | 0.0181 ± 0.017 |
| CGGGATGA | -0.139 ± 0.059 |
| CAAACCTC | -0.2857 ± 0.00071 |
| CGTCCTGA | -0.154 ± 0.015 |
| CCCTCGTC | -0.00802 ± 0.031 |
| CTCAAAAC | -0.0754 ± 0.0071 |
| GAATCTTA | -0.189 ± 0.022 |
| ATAAGTGC | 0.251 ± 0.0033 |

| Sequence | PBM E-score of 8-mer |
| --- | --- |
| CAAAACCA | -0.0609 ± 0.091 |
| GTCTCAAA | -0.197 ± 0.014 |
| GATTCACA | 0.38 ± 0.041 |
| AAAACCTG | 0.191 ± 0.063 |
| GTAGGGAA | -0.149 ± 0.0074 |
| GTGGCTGA | 0.113 ± 0.04 |
| ACAGCTTC | 0.19 ± 0.02 |
| GTCTTACA | -0.135 ± 0.0075 |
| CAAACACC | 0.35 ± 0.015 |
| ATTCCGGC | 0.106 ± 0.026 |
| CAATCTGC | 0.00739 ± 0.0085 |
| GATGAGTA | -0.079 ± 0.028 |
| CAGCGTCC | -0.214 ± 0.0055 |
| CTCTAAGA | -0.271 ± 0.053 |
| GACTCAAA | -0.277 ± 0.029 |
| CCACTTAG | -0.0105 ± 0.01 |
| CCTGCCCC | -0.0529 ± 0.052 |
| AACGCTCA | 0.0651 ± 0.03 |
| CTATTATC | -0.101 ± 0.018 |
| CCGATGGA | -0.21 ± 0.0023 |
| GAAGACAC | 0.314 ± 0.012 |
| CGTTTAAA | -0.375 ± 0.013 |
| AATGCACG | -0.0698 ± 0.084 |
| CAGTTTAC | 0.0267 ± 0.0082 |
| AGTTTAGC | -0.0656 ± 0.044 |

| Sequence | PBM E-score of 8-mer |
| --- | --- |
| GACCTCGC | 0.0974 ± 0.064 |
| CAAAATCC | -0.0365 ± 0.016 |
| ATAACCAA | -0.112 ± 0.038 |
| AAGTCACG | 0.209 ± 0.01 |
| ATAATCCC | -0.17 ± 0.031 |
| AGCCACAA | 0.0383 ± 0.00057 |
| GCAACCGA | 0.0552 ± 0.038 |
| GGATGTGA | 0.267 ± 0.021 |
| TCTAAGCA | -0.0206 ± 0.015 |
| AATAGTGG | 0.103 ± 0.038 |
| AAAAATCT | 0.0192 ± 0.13 |
| GGAATTCC | -0.174 ± 0.038 |
| CGGTCGGC | -0.0774 ± 0.016 |
| AGAGTTAA | 0.0267 ± 0.1 |
| AACGAGGA | -0.1794 ± 0.00061 |
| GAACCCGC | -0.0487 ± 0.038 |
| CGAAGTTC | -0.0527 ± 0.02 |
| AACTTGCC | 0.151 ± 0.0032 |
| AACCCGTG | 0.158 ± 0.045 |
| GAACTCGA | 0.127 ± 0.09 |
| CACCAATG | 0.154 ± 0.009 |
| AGAAAAGA | 0.118 ± 0.13 |
| AGAGTCGG | -0.0477 ± 0.017 |
| TCTACGCA | -0.0731 ± 0.034 |
| GGTCTTTA | -0.29 ± 0.029 |

| Sequence | PBM E-score of 8-mer |
| --- | --- |
| ATGCGAAC | 0.13 ± 0.018 |
| ATCGTTAG | -0.0601 ± 0.038 |
| AATCGAGA | -0.044 ± 0.02 |
| CATTTACG | -0.115 ± 0.15 |
| AACCTGCT | -0.0229 ± 0.061 |
| CCGCGCTC | 0.0344 ± 0.078 |
| AGAATTAG | 0.0754 ± 0.062 |
| ATGCCTAC | -0.246 ± 0.011 |
| GTTTGTCA | 0.228 ± 0.043 |
| TGAAGCAA | -0.229 ± 0.055 |
| CCTGACTA | 0.00126 ± 0.025 |
| ATAATCTC | -0.114 ± 0.039 |
| ATCCCGAC | 0.0102 ± 0.0067 |
| ATTGGTAG | -0.00375 ± 0.026 |
| AAAAGCAA | -0.00863 ± 0.0022 |
| GCCGTAGA | -0.259 ± 0.051 |
| GGTAAGTA | -0.0321 ± 0.051 |
| ACAAGACA | 0.0595 ± 0.094 |
| ACCGATAC | -0.0871 ± 0.047 |
| AGGGGCAG | -0.185 ± 0.048 |
| AATAGCAA | 0.0972 ± 0.078 |
| CGTAGTAG | -0.133 ± 0.047 |
| ATACGGAG | 0.138 ± 0.0076 |
| ATTTCGAG | 0.09258 ± 0.00026 |
| GCTTCTTA | -0.0234 ± 0.0084 |

| Sequence | PBM E-score of 8-mer |
| --- | --- |
| GAATCGCA | 0.236 ± 0.012 |
| CGTAGCGC | 0.0552 ± 0.042 |
| ATGCGTTA | 0.269 ± 0.051 |
| CTAGTTCC | -0.0443 ± 0.018 |
| CTCCAAAC | -0.108 ± 0.11 |
| CACGTTTA | 0.206 ± 0.09 |
| CTCACCTA | 0.4081 ± 0.0035 |
| TACTCCTA | -0.0936 ± 0.005 |
| GTGAACCA | 0.1565 ± 0.00064 |
| GGTGTGCA | 0.365 ± 0.017 |
| AGGTCCCA | -0.0519 ± 0.039 |
| CCAGGTGC | 0.379 ± 0.014 |
| AGTAGGTC | -0.148 ± 0.05 |
| CGGGGGAA | -0.185 ± 0.079 |
| AGTAGGAA | -0.13 ± 0.062 |
| ACCTAGAC | 0.098 ± 0.072 |
| CAGGTCCG | -0.106 ± 0.012 |
| CCGGTCCA | -0.104 ± 0.064 |
| AGCTTAGG | -0.133 ± 0.053 |
| GACAGTTA | 0.187 ± 0.022 |
| AGATCACG | -0.037 ± 0.03 |
| AGAACTGC | 0.0138 ± 0.07 |
| TCCGCGAA | 0.264 ± 0.014 |
| TCACTAAA | 0.147 ± 0.033 |
| CGACTAAA | -0.106 ± 0.065 |

| Sequence | PBM E-score of 8-mer |
| --- | --- |
| AGCACAGG | -0.235 ± 0.023 |
| ATCACGAA | -0.0885 ± 0.085 |
| AAATAAAG | -0.173 ± 0.077 |
| ACCTCGAT | 0.206 ± 0.017 |
| AAGACAGG | -0.0738 ± 0.047 |
| CTTTATGA | -0.00777 ± 0.018 |
| GAGAGTCC | -0.178 ± 0.043 |
| AAAAGCGG | -0.261 ± 0.1 |
| AATTGTAG | -0.224 ± 0.13 |
| CCGCGAAG | 0.282 ± 0.029 |
| CGACGCCA | 0.1 ± 0.034 |
| AGTGTCCA | -0.00597 ± 0.011 |
| AAACGGAT | -0.124 ± 0.045 |
| GCCGAATA | -0.0806 ± 0.036 |
| GCACTTAA | 0.254 ± 0.025 |
| ACCTGACT | -0.0124 ± 0.032 |
| CCGTCTAC | -0.179 ± 0.053 |
| CTTTCAAA | -0.147 ± 0.036 |
| ATTGCTCG | -0.0286 ± 0.034 |
| CCGAGGCA | -0.133 ± 0.049 |
| CACGCCTC | 0.361 ± 0.0085 |
| ACGCAGTC | -0.148 ± 0.059 |
